The source of these data is the supplement of paper PMC4604168 (melanoma cell lines).

The other results are listed elsewhere or left out. Single values are uncertain, as repeats are few or missing.
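Further: cells treated in 1,536-well plates, then fixed and DAPI-stained, with nuclei counted from automated high-throughput microscope images.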

The test system of this test is A2058. Briefly: cell count relative to DMSO control; melanoma cells; higher = more viable cells. As to conditions: library dose: standard library concentration; 72 h.
Compound `Nc1ncn([C@H]2C[C@H](O)[C@@H](CO)O2)c(=O)n1` [decitabine] + C=CCn1c(=O)c2cnc(Nc3ccc(N4CCN(C)CC4)cc3)nc2n1-c1cccc(C(C)(C)O)n1 [MK1775] (first compound 0.5 µM, partner dose 0.1 µM) came in with a cell count of 62.8%. Under `CC(=O)O[C@@]12CO[C@@H]1C[C@H](O)[C@@]1(C)C(=O)[C@H](O)C3=C(C)[C@@H](OC(=O)[C@H](O)[C@@H](NC(=O)OC(C)(C)C)c4ccccc4)C[C@@](O)([C@@H](OC(=O)c4ccccc4)[C@H]21)C3(C)C` [Docetaxel] + COc1cc2ncnc(Nc3ccc(Oc4ccccc4)cc3)c2cc1OC [SrcI1] (first compound 0.0005 µM, partner dose 10 µM) stands 6.29%; under `CO[C@H]1C[C@@H]2CC[C@@H](C)[C@@](O)(O2)C(=O)C(=O)N2CCCC[C@H]2C(=O)O[C@H]([C@H](C)C[C@@H]2CC[C@@H](OCCO)[C@H](OC)C2)CC(=O)[C@H](C)/C=C(\C)[C@@H](O)[C@@H](OC)C(=O)[C@H](C)C[C@H](C)/C=C/C=C/C=C/1C` [everolimus] + O=C(O)c1ccc(-c2c[nH]c3ncc(-c4ccccc4)cc23)cc1C1CCCC1 [GSK650394] (first compound 0.1 µM, partner dose 0.8 µM), 66%. In turn, `CC(=O)O[C@@]12CO[C@@H]1C[C@H](O)[C@@]1(C)C(=O)[C@H](O)C3=C(C)[C@@H](OC(=O)[C@H](O)[C@@H](NC(=O)OC(C)(C)C)c4ccccc4)C[C@@](O)([C@@H](OC(=O)c4ccccc4)[C@H]21)C3(C)C` [Docetaxel] + Cn1c(=O)n(-c2ccc(C(C)(C)C#N)cc2)c2c3cc(-c4cnc5ccccc5c4)ccc3ncc21 [NVP-BEZ235] (first compound 0.0005 µM, partner dose 0.02 µM) returned a cell count of 7.7%. Under `Nc1ncn([C@H]2C[C@H](O)[C@@H](CO)O2)c(=O)n1` [decitabine] + Nc1cccc2c1CN(C1CCC(=O)NC1=O)C2=O [lenalidomide] (first compound 0.5 µM, partner dose 5 µM) stands 77.6%; under `CC(=O)O[C@@]12CO[C@@H]1C[C@H](O)[C@@]1(C)C(=O)[C@H](O)C3=C(C)[C@@H](OC(=O)[C@H](O)[C@@H](NC(=O)OC(C)(C)C)c4ccccc4)C[C@@](O)([C@@H](OC(=O)c4ccccc4)[C@H]21)C3(C)C` [Docetaxel] + Clc1ccc(Nc2nnc(Cc3ccncc3)c3ccccc23)cc1 [vatalanib] (first compound 0.0005 µM, partner dose 10 µM), 13.8%; under `CC(=O)O[C@@]12CO[C@@H]1C[C@H](O)[C@@]1(C)C(=O)[C@H](O)C3=C(C)[C@@H](OC(=O)[C@H](O)[C@@H](NC(=O)OC(C)(C)C)c4ccccc4)C[C@@](O)([C@@H](OC(=O)c4ccccc4)[C@H]21)C3(C)C` [Docetaxel] + C#Cc1cccc(Nc2ncnc3cc(OCCOC)c(OCCOC)cc23)c1 [erlotinib] (first compound 0.0005 µM, partner dose 4 µM), 7.2%. Turning to `CC(=O)c1c(C)c2cnc(Nc3ccc(N4CCNCC4)cn3)nc2n(C2CCCC2)c1=O` [palbociclib] + OCCn1cc(-c2cnc3nnn(Cc4ccc5ncccc5c4)c3n2)cn1 [PF04217903] (first compound 0.2 µM, partner dose 5 µM), the cell count came to 109%.

In turn, `Nc1nc(F)nc2c1ncn2[C@@H]1O[C@H](CO)[C@@H](O)[C@@H]1O` [fludarabine] + CN(NC(=O)CC(=O)NN(C)C(=S)c1ccccc1)C(=S)c1ccccc1 [STA4783] (first compound 1 µM, partner dose 0.03 µM) registered a cell count of 9.6%. In turn, `CC(=O)c1c(C)c2cnc(Nc3ccc(N4CCNCC4)cn3)nc2n(C2CCCC2)c1=O` [palbociclib] + C[C@]1(c2nc3c(C(N)=O)cccc3[nH]2)CCCN1 [Veliparib] (first compound 0.2 µM, partner dose 7 µM) came in with a cell count of 78%. To `CO[C@H]1C[C@@H]2CC[C@@H](C)[C@@](O)(O2)C(=O)C(=O)N2CCCC[C@H]2C(=O)O[C@H]([C@H](C)C[C@@H]2CC[C@@H](OCCO)[C@H](OC)C2)CC(=O)[C@H](C)/C=C(\C)[C@@H](O)[C@@H](OC)C(=O)[C@H](C)C[C@H](C)/C=C/C=C/C=C/1C` [everolimus] + Nc1nc(F)nc2c1ncn2[C@@H]1O[C@H](CO)[C@@H](O)[C@@H]1O [fludarabine] (first compound 0.1 µM, partner dose 1 µM) belongs 59%; to `Nc1nc(F)nc2c1ncn2[C@@H]1O[C@H](CO)[C@@H](O)[C@@H]1O` [fludarabine] + C[C@@H]1CCN(C(=O)CC#N)C[C@@H]1N(C)c1ncnc2[nH]ccc12 [CP690550] (first compound 1 µM, partner dose 5 µM), 68.1%.
